T1: IL-2R on murine splenocytes (mouse, UniProt P16297 27-539; P34902 23-369)
T1 sequence (looked up) 1: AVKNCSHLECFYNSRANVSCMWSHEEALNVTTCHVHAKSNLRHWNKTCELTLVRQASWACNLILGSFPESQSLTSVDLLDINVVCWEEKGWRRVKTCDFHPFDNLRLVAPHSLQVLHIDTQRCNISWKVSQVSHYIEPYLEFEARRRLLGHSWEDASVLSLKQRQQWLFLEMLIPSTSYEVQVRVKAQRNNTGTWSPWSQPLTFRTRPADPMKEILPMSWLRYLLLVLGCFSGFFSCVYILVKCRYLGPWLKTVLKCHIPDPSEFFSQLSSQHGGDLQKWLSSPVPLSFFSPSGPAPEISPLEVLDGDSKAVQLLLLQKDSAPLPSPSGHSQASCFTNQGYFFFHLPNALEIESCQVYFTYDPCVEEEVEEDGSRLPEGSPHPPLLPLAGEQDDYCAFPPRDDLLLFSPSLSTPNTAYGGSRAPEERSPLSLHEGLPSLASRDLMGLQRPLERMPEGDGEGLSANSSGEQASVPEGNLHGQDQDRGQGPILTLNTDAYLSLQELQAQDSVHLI
T1 sequence (looked up) 2: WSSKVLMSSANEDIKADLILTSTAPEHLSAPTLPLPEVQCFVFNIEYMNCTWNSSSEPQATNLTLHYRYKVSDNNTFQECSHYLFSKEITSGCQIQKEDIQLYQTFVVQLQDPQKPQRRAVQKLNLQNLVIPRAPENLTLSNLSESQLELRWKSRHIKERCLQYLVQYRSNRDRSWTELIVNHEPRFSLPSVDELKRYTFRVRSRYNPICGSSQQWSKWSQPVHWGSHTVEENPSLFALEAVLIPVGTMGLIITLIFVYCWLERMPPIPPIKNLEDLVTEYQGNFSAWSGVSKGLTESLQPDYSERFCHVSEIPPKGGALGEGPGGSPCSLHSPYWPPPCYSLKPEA


biological target: T1, IL-2R on murine splenocytes; test: cell-based or functional assay

Binder | EC50 CD8 cells (pSTAT5) [nM] | EC50 NK cells (pSTAT5) [nM] | EC50 Treg cells (pSTAT5)
VBE401 (other) heavy: EVQLVQSGAEVKKPGESLKISCKGSGYAFTNYLIEWVRQMPGKGLEWMGVINPGSGGTNYNEKFKGQVTISADKSISTAYLQWSSLKASDTAMYYCARWRGEGGGFHLRPRDLISNINVIVLELKGSETTFMCEYADETATIVEFLNRWITFSQSIISTLTPTSSSTKKTQLQLEHLLLDLQMILNGINNYKNPKLTRMLTFKFYMPKKATELKHLQCLEEELKPLEEVLNLAQSKGGGGYYAYFDVWGQGTTVTVSSASTKGPSVFPLAPSSKSTSGGTAALGCLVKDYFPEPVTVSWNSGALTSGVHTFPAVLQSSGLYSLSSVVTVPSSSLGTQTYICNVNHKPSNTKVDKRV[gap - human IgG1 Fc with changes] light: AIRLTQSPSSFSASTGDRVTITCKASQSVDYQGDSYMNWYQQKPGKAPKLLIYAASNLESGVPSRFSGSGSGTDFTLTISSLQSEDFATYYCQQSNEDPYTFGGGTKVEIKRTVAAPSVFIFPPSDEQLKSGTASVVCLLNNFYPREAKVQWKVDNALQSGNSQESVTEQDSKDSTYSLSSTLTLSKADYEKHKVYACEVTHQGLSSPVTKSFNRGEC | 32.2 | 34.3 | 2.6 nM
LIZ707 (other) heavy: EVQLVQSGAEVKKPGESLKISCKGSGYAFTNYLIEWVRQMPGKGLEWMGVINPGGGFYMPKKATELKHLQCLEEELKPLEEVLNLAQSKNFHLRPRDLISNINVIVLELKGSETTFMCEYADETATIVEFLNRWITFCQSIISTLTPTSSSTKKTQLQLEHLLLDLQMILNGINNYKNPKLTRMLTFKGGGSGGTNYNEKFKGQVTISADKSISTAYLQWSSLKASDTAMYYCARWRGEGYYAYFDVWGQGTTVTVSSASTKGPSVFPLAPSSKSTSGGTAALGCLVKDYFPEPVTVSWNSGALTSGVHTFPAVLQSSGLYSLSSVVTVPSSSLGTQTYICNVNHKPSNTKVDKRV[gap - human IgG1 Fc with changes] light: AIRLTQSPSSFSASTGDRVTITCKASQSVDYQGDSYMNWYQQKPGKAPKLLIYAASNLESGVPSRFSGSGSGTDFTLTISSLQSEDFATYYCQQSNEDPYTFGGGTKVEIKRTVAAPSVFIFPPSDEQLKSGTASVVCLLNNFYPREAKVQWKVDNALQSGNSQESVTEQDSKDSTYSLSSTLTLSKADYEKHKVYACEVTHQGLSSPVTKSFNRGEC | 12.5 | 5.3 | 3.8 nM
LQM346 (other) heavy: EVQLVQSGAEVKKPGESLKISCKGSGYSFTNFYIHWVRQAPGQRLEWMGSIYPNYGDTAYNQKFKDRFVFSLDTSVSTAYLQISSLKAEDTAVYYCARGYSYAMDYWGQGTTVTVSSASTKGPSVFPLAPSSKSTSGGTAALGCLVKDYFPEPVTVSWNSGALTSGVHTFPAVLQSSGLYSLSSVVTVPSSSLGTQTYICNVNHKPSNTKVDKRV[gap - human IgG1 Fc with changes] light: DIQMTQSPSSVSASVGDRVTITCSASQGISGGGGGSGNFHLRPRDLISNINVIVLELKGSETTFMCEYADETATIVEFLNRWITFSQSIISTLTPTSSSTKKTQLQLEHLLLDLQMILNGINNYKNPKLTRMLTFKFYMPKKATELKHLQCLEEELKPLEEVLNLAQSKGGGGSGGDLNWYQQKPGKAPKLLIYHTSSLHSGVPSRFSGSGSGTDFTLTISSLQPEDFATYYCQYYSKDLLTFGGGTKLEIKRTVAAPSVFIFPPSDEQLKSGTASVVCLLNNFYPREAKVQWKVDNALQSGNSQESVTEQDSKDSTYSLSSTLTLSKADYEKHKVYACEVTHQGLSSPVTKSFNRGEC | 25.4 | 1.8 | < 16 pM
DXM339 (other) heavy: EVQLVQSGAEVKKPGESLKISCKGSGYSFTNFYIHWVRQAPGQRLEWMGSIYPNYGDTAYNQKFKDRFVFSLDTSVSTAYLQISSLKAEDTAVYYCARGYSYAMDYWGQGTTVTVSSASTKGPSVFPLAPSSKSTSGGTAALGCLVKDYFPEPVTVSWNSGALTSGVHTFPAVLQSSGLYSLSSVVTVPSSSLGTQTYICNVNHKPSNTKVDKRV[gap - human IgG1 Fc with changes] light: DIQMTQSPSSVSASVGDRVTITCSASQGISGGGNFHLRPRDLISNINVIVLELKGSETTFMCEYADETATIVEFLNRWITFSQSIISTLTPTSSSTKKTQLQLEHLLLDLQMILNGINNYKNPKLTRMLTFKFYMPKKATELKHLQCLEEELKPLEEVLNLAQSKGGGDLNWYQQKPGKAPKLLIYHTSSLHSGVPSRFSGSGSGTDFTLTISSLQPEDFATYYCQYYSKDLLTFGGGTKLEIKRTVAAPSVFIFPPSDEQLKSGTASVVCLLNNFYPREAKVQWKVDNALQSGNSQESVTEQDSKDSTYSLSSTLTLSKADYEKHKVYACEVTHQGLSSPVTKSFNRGEC | 18.6 | 1.3 | < 16 pM

Continued, values first:

EC50 CD8 cells (pSTAT5) [nM] | EC50 NK cells (pSTAT5) [nM] | EC50 Treg cells (pSTAT5) | Binder
32 | 1.7 | < 16 pM | LPT269 (other) heavy: EVQLVQSGAEVKKPGESLKISCKGSGYSFTNFYIHWVRQAPGQRLEWMGSIYPNYGDTAYNQKFKDRFVFSLDTSVSTAYLQISSLKAEDTAVYYCARGYSYAMDYWGQGTTVTVSSASTKGPSVFPLAPSSKSTSGGTAALGCLVKDYFPEPVTVSWNSGALTSGVHTFPAVLQSSGLYSLSSVVTVPSSSLGTQTYICNVNHKPSNTKVDKRV[gap - human IgG1 Fc with changes] light: DIQMTQSPSSVSASVGDRVTITCSASQGISGNFHLRPRDLISNINVIVLELKGSETTFMCEYADETATIVEFLNRWITFSQSIISTLTPTSSSTKKTQLQLEHLLLDLQMILNGINNYKNPKLTRMLTFKFYMPKKATELKHLQCLEEELKPLEEVLNLAQSKGDLNWYQQKPGKAPKLLIYHTSSLHSGVPSRFSGSGSGTDFTLTISSLQPEDFATYYCQYYSKDLLTFGGGTKLEIKRTVAAPSVFIFPPSDEQLKSGTASVVCLLNNFYPREAKVQWKVDNALQSGNSQESVTEQDSKDSTYSLSSTLTLSKADYEKHKVYACEVTHQGLSSPVTKSFNRGEC
15.7 | 1.2 | < 16 pM | FUE433 (other) heavy: EVQLVQSGAEVKKPGESLKISCKGSGYSFTNFYIHWVRQAPGQRLEWMGSIYPNYGDTAYNQKFKDRFVFSLDTSVSTAYLQISSLKAEDTAVYYCARGYSYAMDYWGQGTTVTVSSASTKGPSVFPLAPSSKSTSGGTAALGCLVKDYFPEPVTVSWNSGALTSGVHTFPAVLQSSGLYSLSSVVTVPSSSLGTQTYICNVNHKPSNTKVDKRV[gap - human IgG1 Fc with changes] light: DIQMTQSPSSVSASVGDRVTITCSASQGISGGGGNFHLRPRDLISNINVIVLELKGSETTFMCEYADETATIVEFLNRWITFSQSIISTLTPTSSSTKKTQLQLEHLLLDLQMILNGINNYKNPKLTRMLTFKFYMPKKATELKHLQCLEEELKPLEEVLNLAQSKGGGGDLNWYQQKPGKAPKLLIYHTSSLHSGVPSRFSGSGSGTDFTLTISSLQPEDFATYYCQYYSKDLLTFGGGTKLEIKRTVAAPSVFIFPPSDEQLKSGTASVVCLLNNFYPREAKVQWKVDNALQSGNSQESVTEQDSKDSTYSLSSTLTLSKADYEKHKVYACEVTHQGLSSPVTKSFNRGEC
70.5 | 2.5 | < 16 pM | GLK754 (other) heavy: EVQLVQSGAEVKKPGESLKISCKGSGYSFTNFYIHWVRQAPGQRLEWMGSIYPNYGDTAYNQKFKDRFVFSLDTSVSTAYLQISSLKAEDTAVYYCARGYSYAMDYWGQGTTVTVSSASTKGPSVFPLAPSSKSTSGGTAALGCLVKDYFPEPVTVSWNSGALTSGVHTFPAVLQSSGLYSLSSVVTVPSSSLGTQTYICNVNHKPSNTKVDKRV[gap - human IgG1 Fc with changes] light: DIQMTQSPSSVSASVGDRVTITCSASQGISGGGGGSGGGGSGGGNFHLRPRDLISNINVIVLELKGSETTFMCEYADETATIVEFLNRWITFSQSIISTLTPTSSSTKKTQLQLEHLLLDLQMILNGINNYKNPKLTRMLTFKFYMPKKATELKHLQCLEEELKPLEEVLNLAQSKGGGGSGGGGSGGGGDLNWYQQKPGKAPKLLIYHTSSLHSGVPSRFSGSGSGTDFTLTISSLQPEDFATYYCQYYSKDLLTFGGGTKLEIKRTVAAPSVFIFPPSDEQLKSGTASVVCLLNNFYPREAKVQWKVDNALQSGNSQESVTEQDSKDSTYSLSSTLTLSKADYEKHKVYACEVTHQGLSSPVTKSFNRGEC
